# Assay results from the supplement of paper PMC8728848.
# This is one part of the list.
# What was measured:
# Assay in all cases: glycan array binding signal (z-score within array); higher = stronger binding
# Conditions in all cases: glycan notation: IUPAC condensed, linker removed
# [1] = biological target: Gal(b1-3)GlcNAc(b1-3)Gal(b1-4)GlcNAc(b1-2)[Gal(b1-3)GlcNAc(b1-3)Gal(b1-4)GlcNAc(b1-6)]Man(a1-6)[Gal(b1-3)GlcNAc(b1-3)Gal(b1-4)GlcNAc(b1-2)Man(a1-3)]Man(b1-4)GlcNAc(b1-4)[Fuc(a1-6)]GlcNAc
# How it was run: (§1)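 Negative Z-scores can be read as non-binding. The Z-score is calculated within each array and then averaged across arrays of one protein sequence at different concentrations or buffers and across linkers. Arrays, 3228 in all, were curated from the Consortium for Functional Glycomics database and kept only where the protein sequence was available.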
# [2] = biological target: Gal(b1-3)GlcNAc(b1-3)Gal(b1-4)GlcNAc(b1-3)Gal(b1-4)GlcNAc(b1-2)[Gal(b1-3)GlcNAc(b1-3)Gal(b1-4)GlcNAc(b1-3)Gal(b1-4)GlcNAc(b1-6)]Man(a1-6)[Gal(b1-3)GlcNAc(b1-3)Gal(b1-4)GlcNAc(b1-3)Gal(b1-4)GlcNAc(b1-2)Man(a1-3)]Man(b1-4)GlcNAc(b1-4)[Fuc(a1-6)]GlcNAc
# How it was run: as §1
# [3] = biological target: Gal(b1-3)GlcNAc(b1-3)Gal(b1-4)GlcNAc(b1-6)[Gal(b1-3)GlcNAc(b1-3)]Gal(b1-4)Glc
# How it was run: as §1
# [4] = biological target: Gal(b1-3)GlcNAc(b1-3)Gal(b1-4)[Fuc(a1-3)]GlcNAc
# How it was run: as §1
# [5] = biological target: Gal(b1-3)GlcNAc(b1-3)Gal(b1-4)[Fuc(a1-3)]GlcNAc(b1-6)[Gal(b1-3)GlcNAc(b1-3)]Gal(b1-4)Glc
# How it was run: as §1
# [6] = biological target: Gal(b1-3)GlcNAc(b1-3)GalNAc
# How it was run: as §1
# [7] = biological target: Gal(b1-3)GlcNAc(b1-6)Gal(b1-4)GlcNAc
# How it was run: as §1
# [8] = biological target: Gal(b1-3)GlcNAc(b1-6)GalNAc
# How it was run: as §1
# [9] = biological target: Gal(b1-3)GlcNAc(b1-6)[Gal(b1-3)]GalNAc
# How it was run: as §1
# Gal(b1-3)GlcNAc6S = biological target: Gal(b1-3)GlcNAc6S
# How it was run: as §1
# [10] = biological target: Gal(b1-3)[Fuc(a1-4)]GlcNAc
# How it was run: as §1
# [11] = biological target: Gal(b1-3)[Fuc(a1-4)]GlcNAc(b1-2)Man
# How it was run: as §1
# [12] = biological target: Gal(b1-3)[Fuc(a1-4)]GlcNAc(b1-2)Man(a1-3)[Gal(b1-3)[Fuc(a1-4)]GlcNAc(b1-2)Man(a1-6)]Man(b1-4)GlcNAc(b1-4)[Fuc(a1-6)]GlcNAc
# How it was run: as §1
# [13] = biological target: Gal(b1-3)[Fuc(a1-4)]GlcNAc(b1-3)Gal(b1-3)[Fuc(a1-4)]GlcNAc
# How it was run: as §1
# [14] = biological target: Gal(b1-3)[Fuc(a1-4)]GlcNAc(b1-3)Gal(b1-4)[Fuc(a1-3)]GlcNAc
# How it was run: as §1
# [15] = biological target: Gal(b1-3)[Fuc(a1-4)]GlcNAc(b1-6)GalNAc
# How it was run: as §1
# [16] = biological target: Gal(b1-3)[GlcNAc(b1-6)]GalNAc
# How it was run: as §1
# [17] = biological target: Gal(b1-3)[Neu5Ac(a2-6)]GalNAc
# How it was run: as §1
# [18] = biological target: Gal(b1-3)[Neu5Ac(a2-6)]GlcNAc(b1-4)Gal(b1-4)Glc
# How it was run: as §1
# [19] = biological target: Gal(b1-3)[Neu5Ac(b2-6)]GalNAc
# How it was run: as §1
# Gal(b1-4)Gal = biological target: Gal(b1-4)Gal
# How it was run: as §1
# [20] = biological target: Gal(b1-4)GalNAc(a1-3)[Fuc(a1-2)]Gal(b1-4)GlcNAc
# How it was run: as §1
# [21] = biological target: Gal(b1-4)GalNAc(b1-3)[Fuc(a1-2)]Gal(b1-4)GlcNAc
# How it was run: as §1
# Gal(b1-4)Glc = biological target: Gal(b1-4)Glc
# How it was run: as §1
# Gal(b1-4)Glc6S = biological target: Gal(b1-4)Glc6S
# How it was run: as §1
# Gal(b1-4)GlcNAc = biological target: Gal(b1-4)GlcNAc
# How it was run: as §1
# [22] = biological target: Gal(b1-4)GlcNAc(a1-6)Gal(b1-4)GlcNAc
# How it was run: as §1
# Gal(b1-4)GlcNAc(b1-2)Man = biological target: Gal(b1-4)GlcNAc(b1-2)Man
# How it was run: as §1
# [23] = biological target: Gal(b1-4)GlcNAc(b1-2)Man(a1-3)Man(b1-4)GlcNAc(b1-4)GlcNAc
# How it was run: as §1
# [24] = biological target: Gal(b1-4)GlcNAc(b1-2)Man(a1-3)[Gal(b1-4)GlcNAc(b1-2)Man(a1-6)]Man(b1-4)GlcNAc(b1-4)GlcNAc
# How it was run: as §1
# [25] = biological target: Gal(b1-4)GlcNAc(b1-2)Man(a1-3)[Gal(b1-4)GlcNAc(b1-2)Man(a1-6)]Man(b1-4)GlcNAc(b1-4)[Fuc(a1-6)]GlcNAc
# How it was run: as §1
# [26] = biological target: Gal(b1-4)GlcNAc(b1-2)Man(a1-3)[Gal(b1-4)GlcNAc(b1-2)Man(a1-6)][Gal(b1-4)GlcNAc(b1-4)]Man(b1-4)GlcNAc(b1-4)[Fuc(a1-6)]GlcNAc
# How it was run: as §1
# [27] = biological target: Gal(b1-4)GlcNAc(b1-2)Man(a1-3)[Gal(b1-4)GlcNAc(b1-2)Man(a1-6)][GlcNAc(b1-4)]Man(b1-4)GlcNAc(b1-4)[Fuc(a1-6)]GlcNAc
# How it was run: as §1
# [28] = biological target: Gal(b1-4)GlcNAc(b1-2)Man(a1-3)[GlcNAc(b1-2)Man(a1-6)]Man(b1-4)GlcNAc(b1-4)GlcNAc
# How it was run: as §1
# [29] = biological target: Gal(b1-4)GlcNAc(b1-2)Man(a1-3)[GlcNAc(b1-4)][Gal(b1-4)GlcNAc(b1-2)Man(a1-6)]Man(b1-4)GlcNAc(b1-4)GlcNAc
# How it was run: as §1
# [30] = biological target: Gal(b1-4)GlcNAc(b1-2)Man(a1-3)[Man(a1-6)]Man(b1-4)GlcNAc(b1-4)GlcNAc
# How it was run: as §1
# [31] = biological target: Gal(b1-4)GlcNAc(b1-2)Man(a1-6)Man(b1-4)GlcNAc(b1-4)GlcNAc
# How it was run: as §1
# [32] = biological target: Gal(b1-4)GlcNAc(b1-2)Man(a1-6)[GlcNAc(b1-2)Man(a1-3)]Man(b1-4)GlcNAc(b1-4)GlcNAc
# How it was run: as §1
binder,measurement,setting,value
Cohesin-marm-DC-ASGPR (protein) LDITSHHHHHHDDLDAVRIKVDTVNAKPGDTVRIPVRFSGIPSKGIANCDFVYSYDPNVLEIIEIEPGDIIVDPNPDKSFDTAVYPDRKIIVFLFAEDSGTGAYAITKDGVFATIVAKVKEGAPNGLSVIKFVEVGGFANNDLVEQKTQFFDGGVNVGDTTEPATPTTPVTTPTTTDDLDAASSKFQRDLVTLRTDFSNFTSNTLAEIQALTSQGSSLQETIASLKAEVEGHKQELQAGASELQEHNKQKAHLGRCPHTCVCPSSFVCVPVHSEILLRVQQLVQDLNKLSCQVAILKNNATTERTCCPINWVEHQGSCYWFSRSGKTWPEAERYCQLENTHLVVINSREEQNFVQAHLGSAYTWMGLSDPEGVWKWVDGTDYSSGFQNWKPGQPDDWQGHGLGGGEDCAHFHPDGRWNDDVCQRSYHWVCEAGLTQASQDSHAS,glycan array binding signal (z-score),[1],-0.165
same,glycan array binding signal (z-score),[2],-0.242
same,glycan array binding signal (z-score),[3],-0.303
same,glycan array binding signal (z-score),[4],-0.303
same,glycan array binding signal (z-score),[5],-0.31
same,glycan array binding signal (z-score),[6],-0.307
same,glycan array binding signal (z-score),[7],-0.28
same,glycan array binding signal (z-score),[8],3.52
same,glycan array binding signal (z-score),[9],-0.272
same,glycan array binding signal (z-score),Gal(b1-3)GlcNAc6S,-0.296
same,glycan array binding signal (z-score),[10],-0.253
same,glycan array binding signal (z-score),[11],-0.295
same,glycan array binding signal (z-score),[12],-0.265
same,glycan array binding signal (z-score),[13],-0.277
same,glycan array binding signal (z-score),[14],-0.298
same,glycan array binding signal (z-score),[15],0.837
same,glycan array binding signal (z-score),[16],-0.153
same,glycan array binding signal (z-score),[17],-0.286
same,glycan array binding signal (z-score),[18],-0.227
same,glycan array binding signal (z-score),[19],-0.313
same,glycan array binding signal (z-score),Gal(b1-4)Gal,-0.262
same,glycan array binding signal (z-score),[20],-0.262
same,glycan array binding signal (z-score),[21],-0.301
same,glycan array binding signal (z-score),Gal(b1-4)Glc,-0.291
same,glycan array binding signal (z-score),Gal(b1-4)Glc6S,-0.232
same,glycan array binding signal (z-score),Gal(b1-4)GlcNAc,-0.248
same,glycan array binding signal (z-score),[22],-0.282
same,glycan array binding signal (z-score),Gal(b1-4)GlcNAc(b1-2)Man,-0.263
same,glycan array binding signal (z-score),[23],-0.282
same,glycan array binding signal (z-score),[24],-0.277
same,glycan array binding signal (z-score),[25],-0.273
same,glycan array binding signal (z-score),[26],-0.3
same,glycan array binding signal (z-score),[27],-0.31
same,glycan array binding signal (z-score),[28],-0.287
same,glycan array binding signal (z-score),[29],-0.308
same,glycan array binding signal (z-score),[30],-0.114
same,glycan array binding signal (z-score),[31],0.025
same,glycan array binding signal (z-score),[32],-0.285
